Not every entry of the source has a single result; some have several. The list is limited to them. There may be further records. The values listed for one entry are repeated measurements (runs, samples, wells, individuals or studies). Counts like (3×) give the number of equal values in this list. Marks such as [2022-09] give the month of the run.

This experiment deals with 266295-075-R-J1-PDC spheroid viability. As to the kind of experiment: Anticancer human tumor 266295-075-R-J1-PDC patient-derived head and neck squamous carcinoma cell line growth inhibition [POLQ]. To be noted: stronger effect = lower value, spheroids with HUVEC and MSC. The protocol:
Multicellular complex tumor spheroid response to Polymerase (POL) inhibitors (novobiocin, ART-558, RP6685) in combination with a variety of drugs and investigational agents in selected tumor cell lines
The POL inhibitors (novobiocin, ART-558, and RP6685) were evaluated both individually and in combination with standard of care and investigational anticancer small molecules within a complex spheroid model of solid tumors. . Complex spheroids include a stromal component modeled by human endothelial cells (HUVEC) and fibroblasts modeled by human mesenchymal stem cells (MSCs). The concentration ranges selected for each drug and investigational agent were based upon clinically achievable concentrations if the clinical Cmax of the agent was known.
Compounds. The drugs and investigational agents: novobiocin (NSC847541), ART-558 (NSC835418), RP-6685 (NSC848927), peposertib (NSC802822), ceralasertib (NSC780249), elimusertib (NSC800525), camonsertib (NSC841442), AZD-1390 (NSC803789), olaparib (NSC753686), talazoparib (NSC767125), rucaparib (NSC756644), sotorasib (NSC818433), MRTX-1133 (NSC836407), SN-38 (NSC673596), topotecan (NSC609699), epotoside (NSC141540), doxorubicin (NSC123127), gemcitabine (NSC613327), 5-fluorouracil (NSC19893), paclitaxel (NSC125973), vemurafenib (NSC761431), MSA-2 (NSC828583), SN-011 (NSC837082), adavosertib (NSC754352), prexasertib (NSC758257), carboplatin (NSC241240) and oxaliplatin (NSC266046), were obtained from the National Cancer Institute (NCI) Developmental Therapeutics Program Chemical Repository (21). The FDA-approved anticancer drug set is available from the Developmental Therapeutics Program at https://dtp.cancer.gov/organization/dscb/obtaining/. […] The stock solutions were prepared in dimethyl sulfoxide (DMSO, Sigma-Aldrich, St. Louis, MO, cat. D2650), except for the platinum compounds which were prepared in saline (Quality Biological, Gaithersburg, MD, cat. 114-055-101), at 800-fold the tested concentration and stored at -70 degrees C prior to their use. All drugs and investigational agents were tested over a range starting from a high concentration at or near the clinical Cmax and decreasing in half-log increments. If the clinical Cmax for an agent had not been determined, the highest concentration tested was 10 microM, except for SN-38, which was tested at a high concentration of 1 microM.
Cell Culture. All cells were maintained in an incubator at 37 degrees C and 5% CO2 with 95% humidity. The PDC lines were cultured according to standard operating procedures established by the NCI PDMR (https://pdmr.cancer.gov). Table 3 of the manuscript, lists the cell lines along with the number of the three cell types plated to form the mct-spheroids and media for tumor cell growth. After thawing, all PDC lines, except 997537-175-T-J1-PDC and 415267-285-R-J2-PDC, were cultured in Matrigel-coated flasks prepared with a working solution of 1X Ham's F-12 nutrient mix, without supplementation (Thermo Fisher Scientific, cat. 11765054), 100 U/mL penicillin-streptomycin (Thermo Fisher Scientific, cat. 15140122), and 2.5% Matrigel (Corning Inc., Corning, NY, cat. 354248) for the first three passages. The two PDC lines 997537-175-T-J1-PDC and 415267-285-R-J2-PDC were cultured on uncoated flasks. The 857933-349-R-J2-PDC line was cultured in 6C/Colon 1B media containing advanced DMEM/F-12 (Thermo Fisher Scientific, cat. 12634028), 10 mM HEPES (Thermo Fisher Scientific, cat. 15630080), 1X GlutaMAX supplement (Thermo Fisher Scientific, cat. 35050061), 0.1 mg/mL primocin (InvivoGen, San Diego, CA, cat. ant-pm-2), 10% defined fetal bovine serum, heat inactivated (HyClone Laboratories Inc., Logan, UT, cat. SH30070.03HI), 50% L-WRN conditioned media (ATCC, cat. CRL-3276), 1.25 mM N-Acetyl-L-cysteine (Sigma-Aldrich, cat. A9165), 10 mM nicotinamide (Sigma-Aldrich, cat. N0636), 1X B-27 supplement (Thermo Fisher Scientific, cat. 17504044), 1X N-2 supplement (Thermo Fisher Scientific, cat. […]
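Further: spheroids exposed to compounds for seven days before readout.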

With `Nc1ccc(C#CCN(C(=O)Cc2ncc(C(F)(F)F)cc2C(F)(F)F)c2ccc(F)cc2)nn1`, the viability, T/C (compound alone 0.0316 µM) is reported as 59.1, 76.1, 88.7, 68.8, 58.2, 78, 80.5, 86.8, 71.8, 71.4, 75.4, 81.3, 103%; the viability, T/C (compound alone 0.1 µM) is 99, 131, 102, 77.4, 91.4, 80, 111, 96.6, 93.5, 97.2, 106, 103, 107%; the viability, T/C (compound alone 1 µM) was 80.8, 93.2, 102, 95.5, 93, 89.9, 92.2, 124, 97.1, 106 (2×), 90.4, 97.4%.

Consider `COC1C(OC(N)=O)C(O)C(Oc2ccc3c(O)c(NC(=O)c4ccc(O)c(CC=C(C)C)c4)c(=O)oc3c2C)OC1(C)C` (stereo not drawn), for which the viability, T/C is 89.1, 98.4, 103, 86.1, 91.6, 92.3, 104, 115, 106, 93.1, 85.8, 95.8, 91% (compound alone 0.1 µM); 96.4, 110, 91.8, 81.9, 92.2, 91.4, 94.2, 112, 98.2, 97.5, 83.5, 96.5, 103% (compound alone 0.316 µM); 104 (2×), 95.4, 107, 103, 96.8, 96.5, 91.1, 110, 101, 82.3, 95.7, 89.8% (compound alone 3.16 µM); 102, 92.1, 106, 100, 94.7, 95.8, 94.1, 118, 115, 107, 88.8, 105, 98.3% (compound alone 10 µM).

Regarding `Cc1cccc(N(C)C(=O)C2C(O)CCN2c2nc(C)cc(C(F)(F)F)c2C#N)c1` (stereo not drawn), the viability, T/C (compound alone 0.0316 µM) is 91.7, 97.2, 100, 87.6, 103, 99.7, 75.1, 93% [2023-10] and 65.7, 79.5, 60.8, 70.4, 79.8% [2023-11]; the viability, T/C (compound alone 0.1 µM) was 96, 91, 94.9, 101, 110, 91.2, 72.7, 85.8% [2023-10] and 87.6, 105, 91.2, 114% [2023-11]; the viability, T/C (compound alone 0.316 µM) was 92.5, 102, 93, 112, 103, 90.8, 80.9, 90.9% [2023-10] and 84.5, 83.3, 87.1, 93.7, 99.4% [2023-11]; the viability, T/C (compound alone 1 µM) is 93, 106 (2×), 91.3, 84.3, 82.9, 94.8, 92.4% [2023-10] and 87, 102, 106, 110, 105% [2023-11]; the viability, T/C (compound alone 3.16 µM) was 97.9, 106, 98.9, 99.6, 91.6, 97.4, 84.3, 94.2% [2023-10] and 101, 91, 108, 115, 106% [2023-11]; the viability, T/C (compound alone 10 µM) is 104, 97.1, 109 (2×), 118, 101, 107, 82.3% [2023-10] and 121, 135, 106, 93.2, 112% [2023-11].

(Values after PubChem BioAssay AID1963853 (Molecular Pharmacology Branch, DTP, NCI, 2024).)
